Experimental data from a compilation of properties of binary mixtures (doi:10.1016/j.molliq.2014.07.002).
The densities may have been worked out from excess volumes.

Assay: xn = mol fraction of the nth substance listed
Conditions: 101 kPa

CN1CCCC1=O + CCCC[n+]1ccn(C)c1.[Cl-]
x1 = 1
Conditions	mass density [kg/m3]
308.15 K	1019
313.15 K	1015

CC[n+]1ccn(C)c1.COS(=O)(=O)[O-] + CN1CCCC1=O
mass density [kg/m3]
Conditions	298.15 K	303.15 K	308.15 K	313.15 K
x1 = 0.0115	1032	1031	–	1026
x2 = 0	1280	1276	1273	1269
x2 = 0.0419	1274	1271	1268	1264
x2 = 0.0861	1268	1265	1262	–
x2 = 0.2085	1249	1246	1244	1241
x2 = 0.3825	1218	–	1214	1212
x2 = 0.5291	1189	–	1185	1182
x2 = 0.6518	1162	1160	–	1154
x2 = 0.718	1144	1143	–	1137
x2 = 0.757	1133	1132	1128	1125
x2 = 0.8502	–	1099	1096	1093
x2 = 0.8983	1079	1078	1075	1073
x2 = 0.9298	1064	–	1060	1059
x2 = 0.9743	1040	1040	1037	1035

CCCC[n+]1ccn(C)c1.[Cl-] + CN1CCCC1=O
mass density [kg/m3]
Conditions	298.15 K	303.15 K	308.15 K	313.15 K
x1 = 0.0138	1028	1028	1024	1019
x2 = 0	1075	1072	1069	1063
x2 = 0.01	–	1071	1068	–
x2 = 0.0396	1073	1071	–	–
x2 = 0.0814	1072	1070	1067	1061
x2 = 0.1986	1071	1069	1066	1060
x2 = 0.3683	1070	–	–	–
x2 = 0.5125	1067	–	1062	1056
x2 = 0.6367	–	1060	1057	–
x2 = 0.704	1058	1056	–	1048
x2 = 0.7466	1055	–	1049	1045
x2 = 0.8415	1047	1045	–	–
x2 = 0.8939	1041	1039	1035	1031
x2 = 0.9254	–	–	1033	1028
x2 = 0.9721	1030	1029	1025	1021

CN1CCCC1=O + CC[n+]1ccn(C)c1.COS(=O)(=O)[O-]
x1 = 1
Conditions	mass density [kg/m3]
298.15 K	1026
303.15 K	1024
308.15 K	1019
